From patent publication US20040121406A1 come the findings set out here.

Broadly, the IC50 is the midpoint of a concentration-inhibition curve. A higher IC50 goes with weaker potency in that assay.

The assay addresses A2a adenosine receptor (Homo sapiens, UniProt P29274). Briefly: biochemical.

Consider `Nc1nc(Nc2ccccc2)nc2c1ncn2[C@@H]1O[C@H](CO)[C@@H](O)[C@H]1O` [CV 1808, 2-phenylaminoadenosine], for which inhibition was half-maximal at 9.77 nM (IC50).
